We go through 79 molecules from the supplement of paper PMC10600219.

Counter-ions that a name gives are not always drawn. Over roughly 2,800 compounds, “cell viability relative to vehicle” has its median near 0.98; the lowest 2% begin near 0.45. The list shows a part of the results.

The experiment has as its system NCI-H2228 alectinib-DTP. The experiment in a line: cell viability relative to vehicle (fraction of vehicle); NCI-H2228 is an ALK-positive lung cancer line and DTP means drug-tolerant persister; higher = less growth inhibition. Conditions: 100 nM; treatment time 6 days. The method in brief: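 Parental NCI-H2228 cells and drug-tolerant persister cells (made with 1000 nM of a targeted drug for 13 days) were seeded in 384-well plates. The next day, the 3114-agent TargetMol anti-cancer compound library was added at 100 nM, with DMSO as vehicle. After 6 days, ATP was read with the CellTiter-Glo 3D Cell Viability Assay. Each value is cell viability relative to vehicle-treated cells.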
In the case of `O=C(NCc1ccncc1)C12CC3CC(C1)CC(c1ccc(Cl)cc1)(C3)C2`, the cell viability is 1.07.

`NC(=O)c1ncn([C@@H]2O[C@H](CO)[C@@H](O)[C@H]2O)n1` [Ribavirin] showed a cell viability of 1.2.

`CC(C)[C@H](CO)Nc1nc(Nc2cccc(Cl)c2)c2ncn(C(C)C)c2n1` [Purvalanol A] displayed a cell viability of 1.09.

The molecule `Cc1[nH]c(=O)c(C#N)cc1-c1ccncc1` [Milrinone] returned a cell viability of 1.08.

Consider `CCCNC(=O)[C@H]1O[C@@H]1C(=O)N[C@H](C(=O)N1CCC[C@H]1C(=O)OC)[C@@H](C)CC` [CA-074 methyl ester], for which the cell viability came out at 0.931.

For the molecule `CN(C)CCC=C1c2ccccc2CCc2ccccc21` [Amitriptyline hydrochloride], the cell viability stood at 1.1.

As to `C#C[C@]1(O)CC[C@H]2[C@@H]3CCc4cc(OC5CCCC5)ccc4[C@H]3CC[C@@]21C` [Quinestrol], the cell viability was determined as 1.16.

For the molecule `CC(=O)c1cc([N+](=O)[O-])c(Sc2cccc(Cl)c2Cl)s1`, the cell viability was 1.03.

`CS(=O)(=O)c1ccc(C2=C(c3ccccc3)C(=O)OC2)cc1` [Rofecoxib] had a cell viability of 1.

`Cn1c(=O)c2[nH]cnc2n(C)c1=O` [Aminophylline] had a cell viability of 1.07.

`O=C(Nc1ccccc1)c1ccccc1O` [Salicylanilide] displayed a cell viability of 0.984.

In turn, `FC(F)(F)c1ccc(CNc2ccc(Cc3c[nH]c4ncc(Cl)cc34)cn2)cn1` [Pexidartinib] displayed a cell viability of 1.03.

`OCCNC1CCCc2c1[nH]c1ccc(-c3ccccc3)cc21` (centres undefined): the cell viability stood at 0.984.

In turn, `Cn1cc(C(=O)Nc2ccc3c(c2)OCCO3)c2ccccc2c1=O` returned a cell viability of 1.12.

`CCCOc1ccc2c(c1)CC[C@@H]1[C@@H]2CC[C@]2(C)[C@@H](OC)CC[C@@H]12` [Promestriene] gave a cell viability of 0.952.

The molecule `N#Cc1ccc2[nH]cc(CCCCN3CCN(c4ccc5oc(C(N)=O)cc5c4)CC3)c2c1` [Vilazodone HCl] came in with a cell viability of 1.06.

On to `CN1C(C(=O)Nc2ccccn2)=C(O)c2sccc2S1(=O)=O` [Tenoxicam], for which the cell viability turned out to be 0.864.

In turn, `COc1cc(/C=C/C(=O)N2CCC=CC2=O)cc(OC)c1OC` [Piperlongumine] showed a cell viability of 1.01.

On to `Cc1cn([C@H]2C[C@H](F)[C@@H](CO)O2)c(=O)[nH]c1=O` [3'-Deoxy-3'-fluorothymidine], for which the cell viability turned out to be 0.837.

Consider `C=C[C@H]1CN2CC[C@H]1C[C@@H]2[C@@H](O)c1ccnc2ccc(OC)cc12` [Quinidine hydrochloride], for which the cell viability is 0.969.

`N=C(N)N` [Guanidine hydrochloride] returned a cell viability of 1.19.

In turn, `CCCCCC/C=C\CCCCCCCc1cccc(O)c1C(=O)O` [Ginkgolic acid C15:1] gave a cell viability of 1.24.

Turning to `CC1(COc2ccc3c(c2)ncn3-c2ccc3cccc(N4CCC(N)CC4)c3n2)COC1` [Crenolanib], the cell viability turned out to be 0.91.

Consider `COc1ccccc1-c1cc(Nc2cccc(CS(N)(=O)=O)c2)ncn1`, for which the cell viability amounted to 1.13.

In turn, `COc1ccc2[nH]c(C(=O)N3CCC(CC(C)(C)O)CC3)cc2c1` came in with a cell viability of 1.05.

In the case of `C[C@@H](Oc1cc(-n2cnc3ccc(CN4CCN(C)CC4)cc32)sc1C(N)=O)c1ccccc1C(F)(F)F`, the cell viability was determined as 0.692.

`COc1ccc(S(=O)(=O)Nc2nc(-c3cccc([N+](=O)[O-])c3)cs2)cc1OC` came in with a cell viability of 0.898.

`CNCC[C@H](Oc1cccc2ccccc12)c1cccs1` [Duloxetine hydrochloride] returned a cell viability of 1.1.

As to `COc1cc2c(cc1OC)C(=O)C(CC1CCN(Cc3ccccc3)CC1)C2` (centres undefined) [Donepezil HCl], the cell viability was determined as 0.913.

In the case of `CC(C)(C)c1ccc(CN2CCN(C(c3ccccc3)c3ccc(Cl)cc3)CC2)cc1` (centres undefined) [Buclizine HCl], the cell viability came out at 0.98.

For `Cc1cc(N2CCCCC2)nc2ccccc12`, the cell viability amounted to 1.12.

The molecule `O=C1NCCSc2c1sc1ccc(O)cc21` registered a cell viability of 1.06.

Molecule `CCN(CC)CCOC(=O)C(c1ccccc1)C1CCCCC1` (centres undefined) [Drofenine hydrochloride] came in with a cell viability of 1.17.

`C=C1C[C@@]23CC[C@H]4[C@@](C)(CCC[C@@]4(C)C(=O)O[C@@H]4O[C@H](CO)[C@@H](O)[C@H](O)[C@H]4O)[C@@H]2CC[C@]1(O[C@@H]1O[C@H](CO)[C@@H](O)[C@H](O)[C@H]1O[C@@H]1O[C@H](CO)[C@@H](O)[C@H](O)[C@H]1O)C3` [Stevioside]: the cell viability was found to be 0.911.

Regarding `CN(C(=O)c1ccc(F)cc1C(F)(F)F)C1CCN(c2nnc(-c3ccnn3C)c3ccccc23)CC1` [Taladegib], the cell viability turned out to be 0.874.

`COc1ccc(S(=O)(=O)NCc2ccc(C(=O)NCCc3ccc(Cl)cn3)cc2)cc1`: the cell viability came out at 1.14.

`COc1cc2c(cc1OC)CN(CCc1ccc(NC(=O)c3cc(OC)c(OC)cc3NC(=O)c3cnc4ccccc4c3)cc1)CC2` [Tariquidar] showed a cell viability of 0.919.

Take `COc1cc(Cc2cnc(N)nc2N)cc(OC)c1OC` [Trimethoprim]: the cell viability came to 1.04.

Molecule `CC(C)(Sc1cc(C(C)(C)C)c(O)c(C(C)(C)C)c1)Sc1cc(C(C)(C)C)c(O)c(C(C)(C)C)c1` [Probucol] displayed a cell viability of 0.972.

`Cc1cccc(-c2[nH]ncc2-c2ccnc3ccccc23)n1` displayed a cell viability of 1.17.

Turning to `COC(=O)c1sccc1S(=O)(=O)Nc1ccc(Nc2ccccc2)cc1OC`, the cell viability stood at 0.835.

For `Nc1c(Br)cc(Br)cc1CN[C@H]1CC[C@H](O)CC1` [Ambroxol], the cell viability turned out to be 0.894.

Regarding `O=C(Nc1ccc(O)cc1)c1ccccc1O` [Osalmid], the cell viability is 1.18.

`C=CC(=O)Nc1cccc(Nc2nc(Nc3ccc(N4CCN(C(C)=O)CC4)cc3OC)ncc2C(F)(F)F)c1` [Rociletinib]: the cell viability came to 0.896.

As to `CS(=O)(=O)CCNCc1ccc(-c2ccc3ncnc(Nc4ccc(OCc5cccc(F)c5)c(Cl)c4)c3c2)o1` [Lapatinib], the cell viability came out at 0.781.

`CS(=O)(=O)CCNCc1ccc(-c2ccc3ncnc(Nc4ccc(OCc5cccc(F)c5)c(Cl)c4)c3c2)o1` [Lapatinib Ditosylate] displayed a cell viability of 0.796.

With `C[C@@H]([C@H](C)O)[C@H](N)C(=O)O` [(4S)-4-Hydroxy-L-isoleucine], the cell viability amounted to 0.961.

`Cn1c(=O)cnn(CCCCN2CCN(c3ncccn3)CC2)c1=O` [Eptapirone] registered a cell viability of 0.95.

For `O=S(=O)(c1cccc2c(I)cccc12)N1CCCNCC1` [ML-7 hydrochloride], the cell viability came to 1.06.

`COc1ccc(CCNCc2ccc(OCc3ccc(Cl)nc3)c(OC)c2)cc1OC` [SBE 13 hydrochloride] returned a cell viability of 0.978.

`CC(C)(C)C(=O)OCOP(=O)(COCCn1cnc2c(N)ncnc21)OCOC(=O)C(C)(C)C` [Adefovir dipivoxil]: the cell viability stood at 0.869.

Molecule `OCC1=C[C@@H](O)[C@@H]2C=CO[C@@H](O[C@@H]3O[C@H](CO)[C@@H](O)[C@H](O)[C@H]3O)[C@H]12` [Aucubin] showed a cell viability of 0.929.

As for `O=c1ccc2ccc(O)c(O)c2o1` [Daphnetin], the cell viability worked out at 1.

`O.O.O.O.O=C([O-])CC(O)(CC(=O)[O-])C(=O)[O-].[Li+].[Li+].[Li+]` [Lithium citrate tribasic tetrahydrate]: the cell viability came out at 0.908.

Molecule `CC1(C)CC(=O)C2=C(C1)NC(=S)NC2c1cccc(O)c1` (centres undefined) [Dimethylenastron] displayed a cell viability of 1.02.

In the case of `CC(=O)NCCc1c[nH]c2ccc(O)cc12` [N-Acetyl-5-hydroxytryptamine], the cell viability is 1.02.

`COc1cc(OC)c(C(=O)CCCN2CCCC2)c(OC)c1` [Buflomedil hydrochloride] showed a cell viability of 0.942.

In turn, `CCCN(CCC)C(=O)C(CCC(=O)O)NC(=O)c1ccccc1` (centres undefined) [Proglumide] showed a cell viability of 1.03.

For `C/C=C1\NC(=O)[C@H]2CSSCC/C=C/[C@H](CC(=O)N[C@H](C(C)C)C(=O)N2)OC(=O)[C@H](C(C)C)NC1=O` [Romidepsin], the cell viability was 0.116.

`O=C(O)CC[C@H]1CC[C@@](c2cc(F)ccc2F)(S(=O)(=O)c2ccc(Cl)cc2)CC1` displayed a cell viability of 0.991.

Consider `CC[C@H](CC[C@@H](C)[C@H]1CC[C@H]2[C@@H]3CC=C4C[C@@H](O)CC[C@]4(C)[C@H]3CC[C@]12C)C(C)C` [Beta-Sitosterol], for which the cell viability came out at 0.958.

As to `COc1ccccc1N1CCN(CC(O)COc2cccc3ccccc23)CC1` (centres undefined) [Naftopidil], the cell viability was found to be 1.01.

The molecule `CN1CCC(=C2c3ccccc3CC(=O)c3sccc32)CC1` [Ketotifen fumarate] came in with a cell viability of 1.17.

`Cn1c(=O)c2c(ncn2CC(=O)O)n(C)c1=O` [Theophylline-7-acetic acid] gave a cell viability of 0.815.

`COc1cc(OCc2cccc(-c3ccccc3)c2C)cc(OC)c1CN1CCCC[C@H]1C(=O)O` [PD-1/PD-L1 inhibitor 1]: the cell viability worked out at 0.952.

Regarding `CC1(C)CCC(CN2CCN(c3ccc(C(=O)NS(=O)(=O)c4ccc(NCC5CCOCC5)c([N+](=O)[O-])c4)c(Oc4cnc5[nH]ccc5c4)c3)CC2)=C(c2ccc(Cl)cc2)C1`, the cell viability stood at 1.1.

As to `NCC1CCC(C(=O)O)CC1` (centres undefined) [Amstat], the cell viability came to 1.02.

Molecule `CS(=O)(=O)c1cccc(CNc2nc(Nc3ccc4c(c3)CCC(=O)N4)ncc2C(F)(F)F)c1` displayed a cell viability of 0.78.

`Cc1ccc(NC(=O)c2ccc(CN3CC[C@H](N(C)C)C3)c(C(F)(F)F)c2)cc1Nc1nccc(-c2cncnc2)n1` [Bafetinib]: the cell viability was 1.1.

Take `CC(C)(Oc1ccc(Cl)cc1)C(=O)O` [Clofibric acid]: the cell viability came out at 1.14.

The molecule `COc1cc(Nc2ncc(F)c(Nc3ccc4c(n3)NC(=O)C(C)(C)O4)n2)cc(OC)c1OC` [R406 free base] had a cell viability of 0.649.

On to `COc1cc(Nc2ncc(F)c(Nc3ccc4c(n3)NC(=O)C(C)(C)O4)n2)cc(OC)c1OC`, for which the cell viability stood at 0.814.

As for `CC(=O)NO` [Acetohydroxamic acid], the cell viability amounted to 0.749.

In the case of `N[C@@H](Cn1ccc(=O)c(O)c1)C(=O)O` [L-Mimosine], the cell viability was found to be 0.966.

In turn, `CC(=O)N[C@@H](CCC(N)=O)C(=O)O` [Aceglutamide] yielded a cell viability of 0.892.

Take `O=C(O)CCC(=O)Nc1ccc(Br)cn1` [Bikinin]: the cell viability turned out to be 0.998.

For `COc1ccc(C(=O)Nc2sc3c(c2C(N)=O)CCCC3)cc1OC`, the cell viability was determined as 0.863.

Consider `COc1cc2ncnc(Nc3ccc(Oc4ccccc4)cc3C)c2cc1OC`, for which the cell viability is 0.904.

Consider `CCC[C@H](Nc1nc(-c2ccc(NC(=O)NCC)c(OC)c2)ncc1C)c1cccnc1` [Lexibulin], for which the cell viability worked out at 0.611.
